Source: the supplement of paper PMC3334620
Over roughly 33,000 sequences, “E-score (-0.5 to 0.5)” has its median near -0.012; the highest 2% begin near 0.29. The list shows a part of the results.

target: T1, Ybr033w (UniProt P38073); assay: PBM E-score (8-mer binding enrichment) (E-score (-0.5 to 0.5)); higher = stronger / more preferred TF binding; most listed sequences are background and not binding sites; details: protein concentration: 200 nM; construct: GST-full length
T1 sequence: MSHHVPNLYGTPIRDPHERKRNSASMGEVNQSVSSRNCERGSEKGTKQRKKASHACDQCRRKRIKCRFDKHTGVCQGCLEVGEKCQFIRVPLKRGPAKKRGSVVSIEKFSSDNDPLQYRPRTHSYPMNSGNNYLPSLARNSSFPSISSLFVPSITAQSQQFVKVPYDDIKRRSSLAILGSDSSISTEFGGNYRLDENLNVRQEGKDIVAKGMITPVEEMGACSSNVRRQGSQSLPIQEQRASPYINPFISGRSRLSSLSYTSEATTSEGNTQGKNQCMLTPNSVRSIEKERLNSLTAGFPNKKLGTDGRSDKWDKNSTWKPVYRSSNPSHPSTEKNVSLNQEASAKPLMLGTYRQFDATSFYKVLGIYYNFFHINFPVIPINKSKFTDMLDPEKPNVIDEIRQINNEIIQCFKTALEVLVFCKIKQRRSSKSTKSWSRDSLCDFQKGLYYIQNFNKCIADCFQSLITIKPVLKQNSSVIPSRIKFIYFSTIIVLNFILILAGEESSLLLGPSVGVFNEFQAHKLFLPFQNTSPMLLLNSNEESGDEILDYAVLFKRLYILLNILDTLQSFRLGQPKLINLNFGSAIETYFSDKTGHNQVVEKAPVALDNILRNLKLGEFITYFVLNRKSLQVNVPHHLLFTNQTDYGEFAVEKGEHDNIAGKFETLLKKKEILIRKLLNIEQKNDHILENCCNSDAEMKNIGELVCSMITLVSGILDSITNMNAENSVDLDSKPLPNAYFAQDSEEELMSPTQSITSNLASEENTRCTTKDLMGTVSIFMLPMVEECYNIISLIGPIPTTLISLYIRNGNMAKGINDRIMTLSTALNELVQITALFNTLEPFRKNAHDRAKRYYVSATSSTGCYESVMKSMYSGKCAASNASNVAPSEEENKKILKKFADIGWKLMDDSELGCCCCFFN
Procedure, shortened: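 Universal all-10-mer Agilent arrays, fresh or stripped once, were converted to double-stranded form by primer extension. GST-tagged yeast transcription factors from PURExpress in vitro transcription/translation, full-length or DNA-binding domain only, were applied at about 100-200 nM and detected with fluorescent anti-GST. After masliner normalisation, the Universal PBM Analysis Suite scored each ungapped eight-base word together with its reverse complement by E-score.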

Sequence	PBM E-score
GACGGTCC	-0.273
CAACGGGC	-0.145
CCGGAGCG	-0.124
AAATTTAG	0.278
GCCAACGA	0.00414
AACAAACA	0.193
CCTGCGTC	-0.206
GCGCGACA	-0.0301
GCACCAAC	-0.251
CAGAGCTC	-0.265
ACGGTTCA	-0.308
GAGTTACC	-0.0841
GAACCGTC	-0.145
AGAGATCT	-0.0343
AGGCACAA	-0.0351
ACGGGCTC	-0.32
TACGACTA	0.0548
ATCTATTG	0.204
GCCACTTA	0.0976
GAGGTGCC	-0.195
GGGAATGA	0.106
AGACGCGG	-0.0643
CCCCACTA	-0.189
CAGCATAC	-0.00523
CAACCTCA	-0.0705

Sequence	PBM E-score
GCCCTTGA	-0.0561
CTACTGCC	-0.141
CGGAAGAA	0.462
TAGATGAA	0.105
CCCGCAAC	-0.123
GAGGCTAA	0.0916
CGGCAGGA	-0.148
AAAAACTG	0.109
CGGTGGCC	-0.166
ACGCTAGT	-0.0989
AAGCTGCA	-0.0266
AAGGTGAG	0.0488
AAGCCTCT	-0.287
CAAATTGA	0.00834
TACGAACA	0.0716
GCGCAGTA	-0.082
AGAACAGG	-0.125
CATAATCC	0.0679
TTGTTAAA	0.0557
CTTGCCCC	-0.288
ATATCTTC	0.218
GAATGGGA	-0.114
GATCGTCC	-0.0484
ACTACGTC	-0.0604
CCGAATTA	0.00463

Sequence	PBM E-score
CACGGTTC	-0.265
AAGCACCC	-0.198
ACCTACCT	-0.0698
ATGACGCC	-0.125
AAATATGA	0.229
ATCGAACG	-0.131
ACATCTGC	-0.175
CTGAGGAC	0.0142
GGTGTCGA	-0.0898
AGGGTAAA	0.178
CCAATCAA	0.075
AACATATG	0.13
AACTTAAT	0.314
ACATAGTA	0.222
CCTTGAGA	0.0546
CTATGCGA	-0.0724
ATAATCAT	0.292
CATGACCA	-0.0597
ACCAGATC	-0.0601
GGCTAGCA	-0.219
CCCGTGCG	-0.195
ACAACGCG	-0.0674
GAGCTCGC	-0.175
CGATCCTA	-0.0657
AGGGAACC	-0.205

Sequence	PBM E-score
GAGTGTAA	-0.0812
CCAGTATC	-0.15
AAGGAAAA	0.398
AGGGCAAT	-0.0627
AAGGCGGC	-0.237
ACACAGAG	-0.0727
CCGTTATA	-0.0193
GATAGCAA	0.102
ATGCATTA	0.261
AGGACAAT	0.108
ACTGAGCC	-0.094
CTGTAGAA	0.0486
AGAGGAAA	0.104
GAGTCAGA	-0.00932
AGTGTTAA	0.224
AAAAACGG	0.0555
CCAATTAA	0.215
ACTAACAG	0.219
AACTCCGA	-0.0263
CTGATGGA	-0.133
AGAGAGAA	-0.203
AAAAGGCC	-0.116
CCGGCTGC	-0.145
CAATAAAA	0.225
AATCTCTG	0.00055

Sequence	PBM E-score
AAAGCTTT	-0.166
ACTCAGAC	-0.00317
AGTACGGA	0.17
ATAGTCTC	0.158
AAAACAGT	0.228
ACAGCCCG	-0.175
ACGCCTTG	-0.0446
AGTCTGAA	-0.105
AGAAATTC	0.178
ACCACCAC	0.139
AGCTAAGG	-0.119
AAATCGCA	0.173
GCAGATTA	-0.0599
CAGTGCCG	-0.105
CGGGGTAG	-0.177
AATTATTC	0.423
CAAGGTGG	-0.083
CACAACGA	-0.00978
CCTTGTGA	0.0244
CGCTGCCC	-0.425
CGGTTTCA	0.0544
GGTAAAAC	0.083
ACAATCCG	0.0606
GAGGCCTA	-0.246
CTGAGCGA	-0.00633

Sequence	PBM E-score
AGGGCGCA	-0.164
ATGGAGGA	0.0389
CAGGGTCA	-0.203
CACGTATC	0.0548
CAGAGAGA	-0.223
AAATCCAA	0.191
GAAGGAGA	-0.116
ATAACTGG	0.144
CTAGCAAG	0.00544
CAAACCTG	-0.0583
GGAGAACA	0.026
GATTCGGC	0.028
ATCAAAGA	0.0429
CCCTAGAG	-0.113
GCCTATCC	-0.188
GTAGCTCA	0.108
TAACGACA	0.0572
AGTACCCC	-0.279
AGGATGGA	0.0276
ATCGACAA	0.074
ATTGCAAT	0.225
AGCATGTC	-0.0812
ACGTTCAA	-0.106
GGATAACA	0.0661
ATATTAGG	0.278

Sequence	PBM E-score
CTTGGGTA	-0.073
ATCGGCGG	-0.0596
GACTAGAA	0.0495
ACATCAGC	0.0543
CGGACCCC	-0.313
CTTCGAAC	0.0126
GACTCACC	-0.171
GCCACTCA	-0.179
TATAGGAA	0.232
CAGTTGTC	0.123
GTATCAGA	0.106
GGACTGCA	-0.208
ATGTCAAT	0.148
GTCCCCAC	-0.293
GAGTGGTA	-0.0215
AGCCTGCG	-0.277
AATCGAAC	-0.0916
AAACTAAT	0.254
ATCTTCGG	0.132
GTTACAAC	-0.00898
ACGTGCCT	-0.0895
ATTTGGGA	0.14
ATCCCATC	0.01
CCTGATCG	-0.0466
AAATTGAT	0.336

Sequence	PBM E-score
ATTTGTGA	0.231
GAGCTAAA	-0.139
TCCTGCCA	-0.189
ACCTCCAA	-0.115
ATGGAAAA	0.32
ACGGGTCA	-0.277
CCACCAAG	-0.0378
AAACCCAG	0.0703
ACATCAAC	0.201
AATAACAC	0.222
GACCAAGC	-0.0405
ATCAATGC	-0.00485
AACATCCA	0.115
GGACAAAC	-0.00297
GAAAAGGA	-0.111
ATAGCCAG	-0.115
CGCTGTGC	0.00463
CGACAAGC	-0.215
CAACATCC	-0.07
CCGGGAGC	-0.219
AGGCTGAG	-0.179
CCAAAGTA	0.118
GAAGTTAA	-0.0175
ACATCAAT	0.0787
CAAACCAC	0.00466

Sequence	PBM E-score
AAATACAT	0.203
ACAACTGC	0.0557
AGGGACCT	-0.208
ATGATCTG	0.201
GGATCTCA	-0.0542
AATGCGGC	-0.0481
CGTGATAC	0.00515
GTATGGGA	-0.125
ATTTGACG	0.175
CCTCCCTC	-0.111
GCAACTCC	-0.162
ATCAGATG	0.035
GAACCCAA	-0.042
GGGGGAAC	-0.279
CATATCGC	0.113
ACCTGCAC	-0.104
GGTTACAC	-0.133
GAAATTGC	0.0471
CCCGAGAC	-0.239
